For the assay, the target named is T1, SPOP (UniProt O43791).
T1 construct: Expressed in 293T cells or endogenous in PC3, MDA-MB-231 and HeLa cells; also called SPOP-WT; Flag-tagged SPOP WT
As to the kind of experiment: co-immunoprecipitation from transfected 293T cells (FIG. 8G).

B1: PD-L1 T290M mutant (ligand)
chain: not shown
notes: Cancer-derived mutant (cBioPortal samples TCGA-IB-7651-01 and TCGA-BR-4362-01); also called cancer-derived PD-L1 T290M; HA-PD-L1 T290M
Consider B1, for which the binding result was “no binding”.

The values are drawn from patent publication US20200377599A1 (BETH ISRAEL DEACONESS MEDICAL CENTER, published 2020).
